This is one part of the list. At the low end of the ranking the order means little.

The record followed here is PMC6212790.

The target in this assay is T1, GST-Rok (full length) (UniProt O34857).
T1 sequence: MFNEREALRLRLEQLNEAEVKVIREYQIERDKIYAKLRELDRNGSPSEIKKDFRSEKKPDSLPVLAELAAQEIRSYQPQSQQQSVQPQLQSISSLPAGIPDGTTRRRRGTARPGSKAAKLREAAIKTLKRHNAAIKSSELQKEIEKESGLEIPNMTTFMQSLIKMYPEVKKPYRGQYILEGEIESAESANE
Kind of assay: protein binding microarray.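 Note: rank score from −0.5 (least bound) to 0.5 (best bound).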 The settings on record: Rok is a gene silencer of Bacillus subtilis; high values mean tight binding; most listed sequences are background and not binding sites; double strand, one strand shown.
GCCGCTAA had a binding signal of 0.188 E-score.

Sequence CCACCTCG displayed a binding signal of -0.203 E-score.

Take GAGAGTAC: the binding signal worked out at 0.0421 E-score.

Take CGCGCCCA: the binding signal is -0.323 E-score.

TATGCACA: the binding signal was found to be 0.189 E-score.

In turn, CTTTGACC registered a binding signal of -0.0937 E-score.

Consider GCGGTTAA, for which the binding signal is 0.2 E-score.

In turn, CCACTCTC displayed a binding signal of -0.106 E-score.

For the sequence ACTTAAGG, the binding signal was -0.0844 E-score.

Sequence AGAATACA gave a binding signal of 0.07 E-score.

Take ATCCACAG: the binding signal was -0.0161 E-score.

CTCAGAGC had a binding signal of -0.195 E-score.

CTACTCTC: the binding signal was 0.0741 E-score.

For ACTTGCTG, the binding signal was found to be 0.0978 E-score.

Take AATCGTGG: the binding signal worked out at 0.0461 E-score.

In turn, CTGCGTCC showed a binding signal of -0.261 E-score.

ACTCGGCT yielded a binding signal of -0.0983 E-score.

Sequence AAACATAT had a binding signal of 0.316 E-score.

ACACCAAT had a binding signal of 0.0951 E-score.

In turn, AAATTACG showed a binding signal of 0.194 E-score.

The sequence GTCCGGGA had a binding signal of -0.145 E-score.

On to CGTAACCA, for which the binding signal is -0.166 E-score.

As to ATGCACCA, the binding signal came to 0.0237 E-score.

With GCAGCATA, the binding signal came out at 0.127 E-score.

On to AAGTAGCA, for which the binding signal stood at 0.204 E-score.

The sequence ACAGCAGT registered a binding signal of -0.0233 E-score.

ATGGCTGA had a binding signal of 0.0206 E-score.

GGCGCGCA displayed a binding signal of -0.189 E-score.

GGGTATAC yielded a binding signal of -0.113 E-score.

CCACTACA yielded a binding signal of 0.0814 E-score.

ACCCTATA: the binding signal is 0.109 E-score.

Sequence AGTTCCCG had a binding signal of -0.287 E-score.

Turning to ACGTACCT, the binding signal turned out to be 0.0285 E-score.

TCAGTCGA had a binding signal of -0.0164 E-score.

For ACTCTCTG, the binding signal is -0.108 E-score.

The sequence GGCTTTTA had a binding signal of -0.146 E-score.

For ATGCACTG, the binding signal stood at 0.0771 E-score.

Regarding AAAAAAGG, the binding signal is -0.151 E-score.

The sequence CTAAGAAA showed a binding signal of 0.152 E-score.

As to CGTTAAGA, the binding signal was -0.0916 E-score.

AGAAGCTG showed a binding signal of 0.0165 E-score.

For the sequence AAAATTCT, the binding signal was found to be 0.111 E-score.

In turn, AGTGCTGG returned a binding signal of -0.0765 E-score.

In turn, AAAACCTT had a binding signal of -0.0977 E-score.

On to AAGGGTAA, for which the binding signal came to 0.114 E-score.

As to AGAGTTGA, the binding signal is -0.0925 E-score.

In the case of AATTGGGC, the binding signal was -0.277 E-score.

The sequence AATTGCCT showed a binding signal of -0.0123 E-score.

In turn, ACCTGTAG registered a binding signal of 0.0716 E-score.

As for AACCTATA, the binding signal turned out to be 0.239 E-score.

Consider CATCTCCG, for which the binding signal is -0.175 E-score.

CTCCCAGA came in with a binding signal of -0.267 E-score.

Regarding GACTAGGA, the binding signal is -0.00844 E-score.

ACAAAGTG had a binding signal of 0.00867 E-score.

Turning to CATGAAAC, the binding signal is -0.125 E-score.

For AAAGGTCC, the binding signal is -0.229 E-score.

CCCGTATC had a binding signal of -0.19 E-score.

CGTGCTAG: the binding signal is -0.00174 E-score.

AAATCGTC came in with a binding signal of 0.0685 E-score.

GCACCATA showed a binding signal of -0.0109 E-score.

With CATACAGG, the binding signal was -0.038 E-score.

On to CAGCGCGC, for which the binding signal is -0.112 E-score.

Turning to GTAAAGTA, the binding signal was determined as 0.332 E-score.

Consider TCAATGCA, for which the binding signal is -0.0144 E-score.

GAGGTAAA returned a binding signal of 0.199 E-score.

For the sequence CAGGGGAA, the binding signal is -0.201 E-score.

Take CTGAAGCC: the binding signal was -0.293 E-score.

ATTCGACC showed a binding signal of -0.0214 E-score.

ACGCCACT had a binding signal of -0.16 E-score.

GAAGCTGC returned a binding signal of -0.174 E-score.

On to CTACGATA, for which the binding signal turned out to be 0.302 E-score.

Regarding GACCAGCC, the binding signal is -0.335 E-score.

For the sequence GCCCTTTA, the binding signal is -0.161 E-score.

For GGTCCAGA, the binding signal is -0.295 E-score.

Turning to CGGTCAGA, the binding signal is -0.032 E-score.

Sequence CTACGGTC showed a binding signal of 0.0649 E-score.

As for ACGAGATA, the binding signal came out at 0.0753 E-score.

The sequence ATATAGAG gave a binding signal of 0.208 E-score.

AGTAAAAC registered a binding signal of 0.31 E-score.

ACGGGACT registered a binding signal of 0.0251 E-score.

The sequence AGCGTAGC had a binding signal of -0.259 E-score.

With CGGCGTTA, the binding signal was -0.028 E-score.

The sequence GGAAGGTA gave a binding signal of 0.0109 E-score.

In turn, GGACTCTA gave a binding signal of -0.165 E-score.

Consider AATTACAT, for which the binding signal amounted to 0.281 E-score.

For GAGGCAGC, the binding signal was -0.244 E-score.

For the sequence CCACGAGA, the binding signal was -0.174 E-score.

In turn, CAAGGCCC gave a binding signal of -0.349 E-score.

GACACTGC displayed a binding signal of -0.145 E-score.

AAAATCTG returned a binding signal of 0.0686 E-score.

For AATTGTCA, the binding signal is -0.0939 E-score.

In the case of GACGTTGA, the binding signal is -0.179 E-score.

In turn, CATAATCG registered a binding signal of 0.218 E-score.

Sequence ATAATGAC displayed a binding signal of 0.206 E-score.

As for AGAACGGC, the binding signal is 0.077 E-score.

Sequence ATCATAAA came in with a binding signal of 0.212 E-score.

Turning to CAATGCGA, the binding signal is -0.136 E-score.

Regarding AAGTATCA, the binding signal amounted to 0.259 E-score.

ATTTTCCG gave a binding signal of 0.302 E-score.

Sequence GCTTCTCA displayed a binding signal of -0.163 E-score.

ATTTCAGC had a binding signal of 0.0741 E-score.

CCGACTTA registered a binding signal of 0.0559 E-score.

In the case of CCTGCAAG, the binding signal was -0.297 E-score.

Consider AATCGGGG, for which the binding signal was -0.22 E-score.

The sequence ACACGCGG came in with a binding signal of -0.245 E-score.

Turning to CGGATAAG, the binding signal was -0.0988 E-score.

GCAAGTAC came in with a binding signal of 0.205 E-score.

Consider CATAATTC, for which the binding signal stood at 0.126 E-score.

AGTTTGAC: the binding signal was -0.0534 E-score.

The sequence ACACAAAT gave a binding signal of 0.209 E-score.

The sequence ACTTACCA returned a binding signal of 0.263 E-score.

Consider GTCCGTGA, for which the binding signal is -0.308 E-score.

CATCCTGA came in with a binding signal of -0.235 E-score.

Turning to ACCACCTG, the binding signal was -0.108 E-score.

For CAAGCATG, the binding signal was -0.12 E-score.

AGCCCGTG registered a binding signal of -0.00226 E-score.

For CCAACTGC, the binding signal was -0.00979 E-score.

In the case of CACTTTGC, the binding signal was -0.14 E-score.

AGGTGGCA gave a binding signal of -0.138 E-score.

For the sequence AGCAGCCA, the binding signal was -0.218 E-score.

As for ACTTTAGG, the binding signal was -0.0321 E-score.

AGATTTGG showed a binding signal of 0.223 E-score.

Take AGGGATAC: the binding signal was -0.132 E-score.

In the case of ACCCGATG, the binding signal is -0.239 E-score.

Regarding CCTGTGTA, the binding signal is -0.0358 E-score.

CCCGAAAC registered a binding signal of -0.0746 E-score.

The sequence CGAGCACG gave a binding signal of -0.296 E-score.

On to AAACGTAA, for which the binding signal came to 0.221 E-score.

For the sequence CCCCTAGC, the binding signal is -0.374 E-score.

On to ATTCTGTA, for which the binding signal amounted to 0.21 E-score.

AGCGACAG: the binding signal is -0.152 E-score.

TTCTGCAA yielded a binding signal of 0.0273 E-score.

For the sequence CTACCTCA, the binding signal amounted to 0.242 E-score.

AAGACCGT displayed a binding signal of -0.15 E-score.

In the case of CACCAGAC, the binding signal was -0.164 E-score.

In the case of CGCCAGGA, the binding signal is -0.2 E-score.

TCCAGGGA yielded a binding signal of -0.274 E-score.

With GTGAAAAC, the binding signal was found to be 0.132 E-score.

For the sequence ACCGTTAA, the binding signal worked out at 0.183 E-score.

Turning to GACTATGC, the binding signal was -0.202 E-score.

In the case of AAAATACG, the binding signal stood at 0.303 E-score.

In turn, ACTCGCTC showed a binding signal of -0.0674 E-score.

On to ATTAGAGA, for which the binding signal came to 0.0714 E-score.

As for CGCAAGAC, the binding signal was -0.0406 E-score.

CGCGATGA showed a binding signal of 0.0767 E-score.

Take CAACTCTG: the binding signal was -0.0271 E-score.

For the sequence AACTATCG, the binding signal came to 0.316 E-score.

AAGATAAC gave a binding signal of 0.0492 E-score.

Regarding CTTGGCTA, the binding signal is -0.0112 E-score.

Sequence CATATGAG registered a binding signal of 0.0142 E-score.

In turn, GCACCAAA yielded a binding signal of -0.0986 E-score.

On to AACACGTT, for which the binding signal is -0.0392 E-score.

Sequence GGAGGGTA yielded a binding signal of -0.234 E-score.

GGACCCGA: the binding signal was -0.32 E-score.

With ATGGTTCG, the binding signal was -0.135 E-score.

As to CTGCTAGC, the binding signal is -0.111 E-score.

In turn, ACCAGCAA showed a binding signal of 0.0448 E-score.

AAGCCATG showed a binding signal of -0.192 E-score.

Take TAGACCTA: the binding signal was 0.0651 E-score.

For the sequence GACTGGCA, the binding signal was -0.123 E-score.

The sequence AGAGTTTG returned a binding signal of 0.112 E-score.

Sequence AATAGCAC registered a binding signal of 0.071 E-score.

Sequence CCGTCTGC yielded a binding signal of -0.242 E-score.

On to AGATTCAG, for which the binding signal is 0.0353 E-score.

On to GCCCCAAC, for which the binding signal was -0.25 E-score.

Regarding GGAGTACA, the binding signal is -0.0203 E-score.

CATTGAAG came in with a binding signal of 0.107 E-score.

Turning to GACGGTAC, the binding signal was -0.0776 E-score.

Consider CACAGAAG, for which the binding signal turned out to be 0.117 E-score.

Sequence AAGCATCG returned a binding signal of 0.00495 E-score.

CAGCACGA: the binding signal was -0.115 E-score.

In the case of CTAGAGAG, the binding signal was -0.342 E-score.
